Screen size: about 4,100 compounds; about 1,600 (39%) were called active. This list was built around the results that the source calls inconclusive (neither active nor inactive); the mix of calls is not that of the screen. Calls come from the whole dose curve; as a rule, active = well fitted inhibition curve with a large enough effect; inconclusive = small, poorly fitted or top-dose-only effect; inactive = no such curve, though single readings can be large or run the other way. Where the call is inconclusive, the potency comes from a doubtful curve fit.
Test: qHTS Validation assay for Inhibitors of Plasmodium falciparum Dd2 growth in vitro; note: nearly all actives have a fitted effect of over 70% in size
Conditions: P. falciparum Dd2 in RBCs, SYBR Green growth, 72 h; series mostly up to 28.7 µM
Procedure, shortened: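 P. falciparum Dd2-infected red blood cells (2.5% hematocrit, 0.3% parasitemia) grown 72 h at 37 °C under 5% O2 with compounds in a titration, 29 uM to 0.5 nM final. Growth read as SYBR Green-1 fluorescence after ~16 h lysis; artesunate 300 nM as positive control.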
Potency is the fitted concentration of half-maximal effect; tags give direction and shape of the fitted curve.

Compound | Potency
COc1cc(O)c(C(CCN2CCN(c3ccccc3)CC2)c2cc(OC)c(OC)c(OC)c2)c(OC)c1 (stereo not drawn) | inconclusive: 1.33 µM [inhibitor, full curve]
CCN1CCC(OCCCNC(=O)C2(CCO)CC23CCOCC3)CC1 (stereo not drawn) | inactive
CC(Sc1nc2cc([N+](=O)[O-])ccc2n1-c1cccc(C(F)(F)F)c1)C(=O)NC(N)=O (stereo not drawn) | inactive
CCc1ccc2oc(-c3ccc(NC(=O)c4cc5ccccc5o4)cc3)nc2c1 | inactive
O=C(NC1CCCN(c2cc(-c3ccc(Cl)cc3)[nH]n2)C1)c1ccc(Br)o1 (stereo not drawn) | inactive
Cc1cn2nc(C(=O)Nc3ccc(N(C)C)cc3)cc2c(N2CCCC2)n1 | inconclusive: 18.8 µM [inhibitor, single point]
CSc1cccc(NC(=O)Cn2c(-c3cccc(Cl)c3)nc(C)c(CCO)c2=O)c1 | inconclusive: 15 µM [inhibitor, single point]
Cc1cccc(S(=O)(=O)c2cn(C)c3cc(N4CCN(c5ccc(F)cc5)CC4)c(F)cc3c2=O)c1 | inconclusive: 21.1 µM [inhibitor, single point]
CCc1noc(-c2cn(C3CCN(C(=O)c4ccc(N(C)C)cc4)CC3)nn2)n1 | inactive
COc1cnc(-c2ccccn2)nc1Oc1ccc(Cl)cc1 | inconclusive: 13.3 µM [inhibitor, partial curve, poor fit]
Cc1cc(C)cc(OCC(=O)NCC2(N3CCOCC3)CCCCC2)c1 | inconclusive: 23.7 µM [inhibitor, partial curve, poor fit]
COc1ncc(-c2cc3c(nc2OC)nc(CC2CC2)n3C)cn1 | inactive
CC(C)CCN1C(=O)CC[C@]2(C(=O)N3CCC(N4CCCCC4)CC3)CCCC[C@@H]12 | inconclusive: 15 µM [inhibitor, partial curve, poor fit]
COC[C@@H]1CN(Cc2cn[nH]c2-c2ccccc2)C[C@H]1c1nc(C)no1 | inactive
CN(c1ccccc1)c1ccc2nnc(-c3cc(C(=O)NCc4cccnc4)ccn3)n2n1 | inconclusive: 34.4 µM [inhibitor, single point]
CC1(C)Cc2c(c(N3CCOCC3)nc3snc(Br)c23)CO1 | active: 0.299 µM
CCn1c2c(c(=N)c3c1CCC3)CCCC2 | active: 13.3 µM
CC(=O)NC1(C)CCN(Cc2ccccc2-c2ccc3ccccc3c2)C1 (stereo not drawn) | inconclusive: 19.3 µM [inhibitor, single point]
O=C1CO[C@H]2CCN(Cc3ccc4c(c3)CCO4)CC[C@@H]2N1Cc1ccccc1 | inconclusive: 17.2 µM [inhibitor, partial curve]
c1cncc(-c2nnc(-c3cccnc3)nn2)c1 | inactive
Fc1ccc(C(Nc2ccc(Cl)c(C(F)(F)F)c2)c2nnc(-c3ccccc3)o2)cc1 (stereo not drawn) | inconclusive: 16.8 µM [inhibitor, single point]
C=CC[C@H]1CC(Cc2ccccc2)=C[C@H](CC=C)N1 | inconclusive: 10.6 µM [inhibitor, partial curve, poor fit]
CCOC(=O)c1nnn(-c2nonc2N)c1-c1ccc(C)cc1 | active: 5.31 µM

Compound | Potency
Cc1ccc(-c2cn3c(n2)sc2cc(C(=O)NCc4cccs4)ccc23)cc1 | inconclusive: 23.7 µM [inhibitor, single point]
COc1ccc(-c2ccc3nnc(CNC(=O)Cc4cccc(F)c4)n3n2)cc1 | inactive
COc1ccc(NC(=O)c2ccc3c(c2)n(C)c(=O)c2ccnn23)cc1OC | inactive
CCc1ccc(S(=O)(=O)Nc2cc(-c3cn4ccccc4n3)ccc2C)cc1 | inactive
C/C(=N\NC(=O)C12CCC(C)(C(=O)O1)C2(C)C)c1ccccc1O (stereo not drawn) | inconclusive: 21.1 µM [inhibitor, single point]
CCS(=O)(=O)N1CCCC(Cc2ncc(C)n2Cc2ccc(F)cc2)C1 (stereo not drawn) | inconclusive: 1.68 µM [inhibitor, full curve, poor fit]
CCc1nc(-c2c3n(c(=O)n(CC(=O)Nc4c(C)cccc4CC)c2=O)CCCC3)no1 | inconclusive: 8.41 µM [inhibitor, partial curve, poor fit]
NNc1nnc2c3cc(F)ccc3n(Cc3ccccc3)c2n1 | inconclusive: 21.1 µM [inhibitor, single point]
COc1ccc(-c2cc(N3CCCC(NC(=O)c4ccc(C)cc4C)C3)n[nH]2)cc1 (stereo not drawn) | inconclusive: 21.1 µM [inhibitor, single point]
O=C1CCC2(CCN1)CCN(S(=O)(=O)c1cccnc1)CC2 | inactive
Cc1ccccc1NC(=O)c1c(C)oc2ccc(O)c(CN(C)Cc3ccccc3)c12 | active: 2.37 µM
COc1ccc(-c2oc3ncn4nc(COc5ccc(Cl)cc5)nc4c3c2-c2ccc(OC)cc2)cc1 | inconclusive: 13.3 µM [inhibitor, single point]
CSc1cccc(Nc2cc(C(=O)NC3CCCCC3)c3ccccc3n2)c1 | inconclusive: 21.1 µM [inhibitor, single point]
O=C(C1CCCCC1)N1CCN(c2ccnc3cc(Cl)ccc23)CC1 | inconclusive: 21.1 µM [inhibitor, single point]
C#CCNC(=O)C[C@@H]1c2nc(NC(=O)OCC=C)sc2C[C@@H]2[C@](C)(CO)[C@H](O)CC[C@]21C | active: 15 µM
O=C1CC2(CCN(Cc3ccccc3)CC2)Oc2ccccc21 | inconclusive: 13.7 µM [inhibitor, partial curve]
NC(=O)c1cccc2[nH]c([C@H]3CCN(Cc4ccccn4)C3)nc12 | inconclusive: 1.53 µM [inhibitor, full curve]
CC(Nc1ccnc2cc(Cl)ccc12)c1ccc(S(N)(=O)=O)cc1 (stereo not drawn) | inconclusive: 21.1 µM [inhibitor, single point]
COC(=O)c1sc(N2C(=O)c3oc4ccc(C)cc4c(=O)c3C2c2ccc(O)c(OC)c2)nc1C (stereo not drawn) | inconclusive: 2.37 µM [inhibitor, full curve, poor fit]
CN(C)CCOc1ccccc1-c1ccc(C#N)cc1 | inconclusive: 13.3 µM [inhibitor, single point]
CCOC(=O)c1c(S(=O)(=O)N2CCCC(C(=O)N3CCN(c4cc(C)ccc4C)CC3)C2)c(C)n(C)c1C (stereo not drawn) | active: 1.5 µM
O=C(Nc1nc2c(F)cccc2s1)c1ccc(S(=O)(=O)N2CCCc3ccccc32)cc1 | inactive
COc1cc2c(cc1OC)CN(C(=O)c1cccs1)CC2 | inactive

Compound | Potency
Cn1ccc2cc(NCc3nnc(C(=O)N4CCC[C@@H]4CN4CCCC4)n3-c3ccccc3)ccc21 | inconclusive: 21.1 µM [inhibitor, single point]
CCc1ccccc1CN1CCC(CO)(CN2CCCC2)CC1 | inactive
CC(=O)SC1CC(=O)N(c2c(C)cccc2C)C1=O (stereo not drawn) | inactive
CCCC(=O)N1CCn2c(nnc2[C@@H]2C[C@@H](O)CN2Cc2ccccc2)C1 | inactive
CC(=O)c1ccc(NC(=O)CSc2nc(-c3ccc(C)cc3)nc3c2c(=O)n(C)c(=O)n3C)cc1 | inconclusive: 16.8 µM [inhibitor, single point]
CCO[C@@H]1OC(C(=O)N2CCN(Cc3ccc4c(c3)OCO4)CC2)=C[C@H](c2cn(C(C)=O)c3ccccc23)[C@H]1CCCO | active: 9.44 µM
O=C1NCc2ccccc2CC12CCCN(Cc1ccc(Cl)cc1)C2 (stereo not drawn) | inconclusive: 18.8 µM [inhibitor, single point]
COCC1CN(Cc2ccc(Br)s2)CC12CCNCC2 (stereo not drawn) | inconclusive: 13.3 µM [inhibitor, single point]
CN1CCN(c2ccc(Nc3ccnc4cc(Cl)ccc34)cc2)CC1 | active: 0.188 µM
O=C(c1ccc(N2CC3CC(C2)[C@H]2CCCC(=O)N2C3)nc1)N1CCC(Cc2ccccc2)CC1 (stereo partly drawn) | inconclusive: 15 µM [inhibitor, single point]
COC(=O)c1ccc(C2Nc3c(C)cccc3-c3cc(C)nn32)cc1 (stereo not drawn) | inconclusive: 21.1 µM [inhibitor, single point]
O=C1NCN(Cc2ccc(Cl)cc2)C12CCN(CC1CC1)CC2 | inconclusive: 9.68 µM [inhibitor, partial curve]
O=c1c2ccccc2nc2n1CCN2Cc1ccc(Cl)cc1 | inconclusive: 15 µM [inhibitor, single point]
CCOc1ccc(S(=O)(=O)N(C)c2ccc(OCC(=O)Nc3nccs3)cc2)cc1 | inconclusive: 8.41 µM [inhibitor, single point]
O=C(CCc1ccccc1)N1CCCCCC1CN1CCOCC1 (stereo not drawn) | inconclusive: 16.8 µM [inhibitor, single point]
COc1cc(OC)cc(-c2nc3nc(C)c(CCC(=O)Nc4ccc(C)cc4C)c(C)n3n2)c1 | inconclusive: 13.3 µM [inhibitor, single point]
CCOCc1cc(CN2CCN(c3ccccc3OC)CC2)c(O)c2ncccc12 | active: 5.96 µM
CCn1c(SCc2ccc(C#N)cc2)nnc1-c1ccc(S(=O)(=O)N2CCCCC2)cc1 | inconclusive: 6.68 µM [inhibitor, partial curve]
CCOC(=O)c1nnn(-c2nonc2-n2cccc2)c1CN1CCC(C(=O)OCC)CC1 | active: 4.73 µM
Fc1ccc(OC2CN(CC3CCCCC3)C2)cc1F | inconclusive: 17.2 µM [inhibitor, partial curve]
CN1[C@@H](CCC(=O)NCc2ccccc2)CNC(=O)[C@@H]2[C@H]1CCN2Cc1cccc(Cl)c1 | inconclusive: 21.1 µM [inhibitor, single point]
CCOc1ccccc1CNC(=O)c1oc2c(c1C)-c1nn(Cc3cccc(Cl)c3)cc1CC2 | inconclusive: 23.7 µM [inhibitor, single point]

From PubChem BioAssay AID1347416 (National Center for Advancing Translational Sciences (NCATS), 2020)
